Whole data set: some 33,000 sequences, median “E-score (-0.5 to 0.5)” near -0.012, cut for the highest 2% near 0.29. This is one part of the list.

This note sets out measurements from the supplement of paper PMC3334620.

The target of the assay is T1, Ybr033w (UniProt P38073).
T1 sequence: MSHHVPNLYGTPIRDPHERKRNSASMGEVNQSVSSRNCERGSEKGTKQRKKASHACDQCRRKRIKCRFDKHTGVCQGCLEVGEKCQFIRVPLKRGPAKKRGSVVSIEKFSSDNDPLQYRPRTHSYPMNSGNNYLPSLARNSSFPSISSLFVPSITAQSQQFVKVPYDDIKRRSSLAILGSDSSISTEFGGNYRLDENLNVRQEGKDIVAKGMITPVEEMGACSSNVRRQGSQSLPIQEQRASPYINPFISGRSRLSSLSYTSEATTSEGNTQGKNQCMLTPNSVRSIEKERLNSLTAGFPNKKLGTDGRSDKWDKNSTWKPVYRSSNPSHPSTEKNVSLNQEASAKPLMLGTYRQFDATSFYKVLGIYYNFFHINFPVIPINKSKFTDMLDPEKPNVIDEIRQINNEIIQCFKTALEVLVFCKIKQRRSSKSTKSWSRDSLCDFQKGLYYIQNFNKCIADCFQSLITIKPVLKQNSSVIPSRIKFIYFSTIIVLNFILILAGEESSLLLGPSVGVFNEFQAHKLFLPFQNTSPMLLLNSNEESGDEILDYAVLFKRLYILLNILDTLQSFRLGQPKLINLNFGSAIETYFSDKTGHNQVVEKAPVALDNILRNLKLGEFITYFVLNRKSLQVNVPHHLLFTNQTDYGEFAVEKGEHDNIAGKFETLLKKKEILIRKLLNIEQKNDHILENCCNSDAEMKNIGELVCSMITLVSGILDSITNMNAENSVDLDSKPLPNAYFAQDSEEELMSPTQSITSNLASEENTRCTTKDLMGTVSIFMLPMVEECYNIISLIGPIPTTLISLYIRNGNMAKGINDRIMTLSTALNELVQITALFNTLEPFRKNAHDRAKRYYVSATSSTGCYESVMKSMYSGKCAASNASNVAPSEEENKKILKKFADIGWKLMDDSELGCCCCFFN
Description: PBM E-score (8-mer binding enrichment) (E-score (-0.5 to 0.5)); higher = stronger / more preferred TF binding; most listed sequences are background and not binding sites. The note with it: protein concentration: 200 nM; construct: GST-full length. Summed up:
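Using PURExpress in vitro transcription/translation, GST-tagged yeast transcription factors were made in full-length or DNA-binding-domain form. These were applied at about 100-200 nM to double-stranded universal all-10-mer Agilent arrays, and bound protein was detected with fluorescent anti-GST. Scans were normalised with masliner before the Universal PBM Analysis Suite assigned E-scores to ungapped eight-base words pooled with their reverse complements.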
Turning to ACAGTAGG, the “PBM E-score” value was 0.0476. To GCCTCTCC belongs -0.241; to AATATTAG, 0.228. On to GTCATCAC, for which the “PBM E-score” value is -0.105. Consider ATCGCGCA, for which the “PBM E-score” value was -0.178. In the case of GAACACAA, the “PBM E-score” value amounted to 0.00401. To AAGCCATC belongs 0.00583. For ATGCTGAA, the “PBM E-score” value is 0.0472. For CAGCCGAC, the “PBM E-score” value was -0.218.

On to ATTAGTTA, for which the “PBM E-score” value stood at 0.344. Turning to AGACCTGA, the “PBM E-score” value is -0.0516. For CACGTCCA the value was -0.234. For TCCTTAGA the value was -0.173; for TGATATAA, 0.179. For ATCCCCTG the value was -0.205; for ACTACAGA, 0.268; for ACTGCTTG, -0.0147.

On to AAAACGAG, for which the “PBM E-score” value was determined as 0.0327. Regarding CGTCAGTA, the “PBM E-score” value was -0.118. Turning to CCGGCGAG, the “PBM E-score” value is -0.184. For GAGGGAGC the value was -0.285; for AGGTTTAA, 0.137. For ACATGGAG the value was -0.135. To GAGCTCCA belongs -0.146; to ACAAGTGT, 0.117.

As to AGCATCAC, the “PBM E-score” value was -0.131. To ATAATTAA belongs 0.414. To GCACCGCC belongs -0.263; to AGCAGGGC, -0.273; to ACGATCTG, -0.123.

Regarding CTGGTATC, the “PBM E-score” value worked out at 0.128.

Turning to CGCCCTGA, the “PBM E-score” value came to 0.0278. To GCATGAAA belongs 0.172; to GATCGGTA, 0.0772; to AAGACATT, -0.109.

Turning to AAGAACCG, the “PBM E-score” value was 0.18. For CATCTCTA the value was 0.0677.

As to ACATTCCT, the “PBM E-score” value was -0.018. Turning to CCAGCACG, the “PBM E-score” value is -0.114. To AGCCGAAC belongs -0.166; to CCCCCAAG, -0.15; to GCGGTTCA, -0.0458. With GCAACCTA, the “PBM E-score” value was determined as 0.056. To GACCGCAA belongs -0.0488; to TGGGACAA, 0.0696. For the sequence CGCCGATC, the “PBM E-score” value is -0.0951.

As to ATAAACAC, the “PBM E-score” value stood at 0.241. To GCCAAAAA belongs 0.212; to ACGAACAG, -0.146; to ATGCACGA, -0.021. For CACAAACC the value was -0.139; for CCTCCAGG, -0.322; for ACTTCTAT, 0.191. For AACTACAT the value was 0.188. Turning to CTCAGGAC, the “PBM E-score” value was -0.113. To TGACTAAA belongs 0.0305; to CTTGATGA, 0.197. To CTAAATAC belongs 0.244; to TAACCAAA, 0.186; to TGGGCCCA, -0.281. For CCGACATA the value was -0.03; for ACTAGGTA, 0.0345. Consider AAAAGGCT, for which the “PBM E-score” value amounted to 0.0191. To ACCGTCGA belongs -0.21; to ATTGAGAA, 0.133; to GGCGTAAA, 0.138.

With CGTCGAAG, the “PBM E-score” value was -0.0262. For ACCTGTCG the value was -0.123; for AGTGGTAA, 0.143; for CGAAGATC, -0.0525. To CGTCCATC belongs -0.0544; to CTAGTGCC, -0.156. Turning to GACAAGGA, the “PBM E-score” value is -0.025. To AAACTCTT belongs 0.0712; to AGGATACA, -0.0131. For GTGGCGGA the value was 0.0388; for CCTTGGAA, 0.183; for ACCCAAGC, -0.293.

For GAACGGGA, the “PBM E-score” value is -0.0404. For CGAAGAAG the value was -0.0565. Turning to AATCCGTC, the “PBM E-score” value stood at 0.158. To AGAAATCC belongs 0.0392; to AGGGATTA, 0.187. As for ACTACCAC, the “PBM E-score” value turned out to be 0.147. In the case of CCTGAGCA, the “PBM E-score” value was -0.075. For AGTCTCAA, the “PBM E-score” value was -0.113.
